In PubChem BioAssay AID485360 (National Center for Advancing Translational Sciences (NCATS), 2010):
The campaign covered roughly 230,000 compounds. About 1,500 (0.65%) were called active. Inconclusive means that the source gave no clear call. Such entries were picked first, then a sample of the others. Calls follow the shape of the dose curve; as a rule, active = well fitted inhibition curve with a large enough effect; inconclusive = small, poorly fitted or top-dose-only effect; inactive = no such curve, though single readings can be large or run the other way. Potencies beside an inconclusive call are fits to weak or partial responses and may not hold up.

Target: Lethal(3)malignant brain tumor-like protein 1 (Homo sapiens) (UniProt Q9Y468)
Experiment: qHTS Assay for the Inhibitors of L3MBTL1; also: nearly all actives have a fitted effect of over 60% in size
Settings: AlphaScreen L3MBTL1–H3K9me1 peptide binding; activity, negative = inhibition: at 57.1 µM (top of the series)
Outline: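 L3MBTL1 50 nM + b-AHA-H3(1-15)K9me1 75 nM, 30 min RT; compound added, 30 min RT; streptavidin donor/Ni-chelate acceptor beads 10 ug/mL each final, 30 min RT dark; AlphaScreen read.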
% is scaled to controls: 0 for no effect and ±100 for the full control effect; potency is read from the fitted curve at half-maximal effect; tags tell the direction and shape of the fitted curve.

UniProt Q9Y468, sequence (Q9Y468 whole entry, looked up): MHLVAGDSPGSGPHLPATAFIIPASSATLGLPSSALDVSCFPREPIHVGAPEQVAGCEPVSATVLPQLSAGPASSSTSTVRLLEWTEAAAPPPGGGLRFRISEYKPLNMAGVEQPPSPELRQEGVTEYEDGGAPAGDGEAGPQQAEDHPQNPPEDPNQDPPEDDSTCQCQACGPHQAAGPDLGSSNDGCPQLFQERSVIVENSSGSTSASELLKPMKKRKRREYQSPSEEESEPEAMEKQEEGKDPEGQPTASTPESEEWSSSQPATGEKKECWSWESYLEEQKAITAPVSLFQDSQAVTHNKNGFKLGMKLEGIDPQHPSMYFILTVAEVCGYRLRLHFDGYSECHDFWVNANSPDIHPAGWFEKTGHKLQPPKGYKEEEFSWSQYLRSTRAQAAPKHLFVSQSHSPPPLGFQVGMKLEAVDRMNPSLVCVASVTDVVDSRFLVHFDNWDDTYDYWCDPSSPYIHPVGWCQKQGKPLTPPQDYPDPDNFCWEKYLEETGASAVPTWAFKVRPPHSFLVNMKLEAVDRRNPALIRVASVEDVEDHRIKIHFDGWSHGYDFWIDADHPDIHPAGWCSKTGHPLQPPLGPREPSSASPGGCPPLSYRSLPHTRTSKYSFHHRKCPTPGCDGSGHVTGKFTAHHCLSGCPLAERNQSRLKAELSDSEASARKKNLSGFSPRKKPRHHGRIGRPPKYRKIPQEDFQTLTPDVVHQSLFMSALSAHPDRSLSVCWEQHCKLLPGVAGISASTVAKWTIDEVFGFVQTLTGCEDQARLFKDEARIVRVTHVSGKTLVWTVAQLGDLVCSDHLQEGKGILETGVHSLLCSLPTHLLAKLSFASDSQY

Compound | Potency | activity, negative = inhibition
c1csc(-c2cn3ccc4ccccc4c3n2)c1 | inconclusive: 39.8 µM [inhibitor, single point] | –
N#CC1=C(N)NC(SCC(=O)c2ccc(Br)cc2)=C(C#N)C12CCCCC2 | – | inactive: -18.8%
O=C(CC1C(=O)NCCN1CC1CCCCC1)NCc1ccc(F)cc1F (stereo not drawn) | – | inactive: 5.72%
Cc1ccc(C(=O)Nc2ccc(N3CCCC3)cc2)cc1 | inconclusive: 0.1 µM [inhibitor, full curve, poor fit] | –
COc1ccc(-c2ccc(C3C(C#N)=C(N)Oc4n[nH]c(C)c43)o2)cc1 (stereo not drawn) | – | inactive: -9.4%
CCCCCN(C(=O)CSc1n[nH]c(-c2ccc(C)cc2)n1)c1c(N)n(CCCC)c(=O)[nH]c1=O | inconclusive: 6.31 µM [inhibitor, single point] | –
Cc1ccc(CNc2ccc(Cl)cc2[N+](=O)[O-])cc1 | inconclusive: 17.8 µM [inhibitor, partial curve] | –
O=C1c2ccccc2C(=O)N1c1cccc(-c2csc(Nc3ccc4c(c3)OCO4)n2)c1 | – | inactive: -29.5%
O=C1NN(c2ccc(F)cc2)C(=O)/C1=C\C=C\c1ccco1 | inconclusive: 25.1 µM [inhibitor, partial curve] | –
O=C(O)c1ccc(OCCn2ccnc2)cc1 | – | inactive: 6.87%
Oc1cccc(/C=N/Nc2cccc3cccnc23)c1 | inconclusive: 31.6 µM [inhibitor, single point] | –
CCOc1ncccc1C(=O)OCc1ccc([N+](=O)[O-])cc1 | inconclusive: 7.08 µM [inhibitor, single point] | –
O=S1(=O)C=CC(N2CCOCC2)C1 (stereo not drawn) | inconclusive: 6.31 µM [inhibitor, single point] | –
COC(=O)CSc1ncnc2c1cnn2-c1ccc(C)cc1C | inconclusive: 0.631 µM [inhibitor, full curve, poor fit] | –
CC1CCN(C(=O)c2[nH]cnc2C(=O)NCC(=O)OC(C)(C)C)CC1 | – | inactive: -1.14%
C1=C(CCNc2ncnc3nc[nH]c23)CCCC1 | inconclusive: 39.8 µM [inhibitor, single point] | –
CCOc1cc(Br)cc(/C=N/NC(=O)c2cccnc2)c1O | inconclusive: 39.8 µM [inhibitor, single point] | –
c1ccc(C2=Nn3c(nnc3-c3ccccn3)SC2)cc1 | inconclusive: 31.6 µM [inhibitor, single point] | –
COC(=O)c1c(C)[nH]c(C(=O)C(C)OC(=O)C2CC(=O)N(CCc3ccccc3)C2)c1C (stereo not drawn) | active: 28.2 µM | –
O=C1c2ccccc2C(Nc2ccc3c(c2)OCO3)N1Cc1ccc2c(c1)OCO2 (stereo not drawn) | inconclusive: 39.8 µM [inhibitor, single point] | –
CCCCN(C(=O)c1cc(-c2ccco2)nc2ccccc12)c1c(N)n(CCCC)c(=O)[nH]c1=O | inconclusive: 25.1 µM [inhibitor, single point] | –
Cc1nn(-c2ccccc2)c(C)c1/C=N/N1CCN(c2ccccn2)CC1 | inconclusive: 20 µM [inhibitor, single point] | –
COC(=O)C1(NC(=O)NC23CC4CC(CC(C4)C2)C3)CCCCC1 | inconclusive: 4.47 µM [inhibitor, single point] | –
FC(F)(F)c1nnc2ccc(NCn3nnc4ccccc43)nn12 | inconclusive: 3.98 µM [inhibitor, single point] | –
N#Cc1ccc(OCC(=O)NCCCn2ccnc2)cc1 | inconclusive: 25.1 µM [inhibitor, partial curve] | –

Compound | Potency | activity, negative = inhibition
CCOC(=O)c1c(C)[nH]c(C(=O)C(C)OC(=O)c2cccc(OCc3c(C)noc3C)c2)c1C (stereo not drawn) | inconclusive: 0.794 µM [inhibitor, full curve, poor fit] | –
CCN(CCO)C(=O)CC(c1ccccc1)c1cc(Br)ccc1O (stereo not drawn) | inconclusive: 7.08 µM [inhibitor, single point] | –
Cc1ccc(CN(C(=O)c2ccco2)C(C(=O)NC2CCCC2)c2cccnc2)cc1 (stereo not drawn) | – | inactive: 2.05%
O=S(=O)(C/C(=C/CO)S(=O)(=O)c1ccccc1)c1ccccc1 | – | inactive: 1.22%
Cc1oc(C)c2c(=O)ccc3c(c12)OC(N)=C(C#N)C3c1ccccc1Cl (stereo not drawn) | inconclusive: 39.8 µM [inhibitor, single point] | –
Cc1ccc(NNC2CC(=O)N(c3cccc(Cl)c3)C2=O)cc1 (stereo not drawn) | inconclusive: 14.1 µM [inhibitor, partial curve] | –
CCC12CN3CC(CC)(CN(C1)C3c1c(O)ccc3ccccc13)C2=O (stereo not drawn) | – | inactive: -10.6%
COc1cc(CNCc2ccc(C)cc2)cc(OC)c1OC | – | inactive: -6.95%
O=C(NCC1CCN(S(=O)(=O)c2ccccc2)CC1)Nc1ccccc1 | inconclusive: 4.47 µM [inhibitor, single point] | –
COc1cccc(/C=N/NC(=O)C(=O)N2CCCC2)c1O | active: 22.4 µM | –
Cc1cc(C)c2nc(-c3ccccn3)cc(C(=O)Nc3ccc(S(=O)(=O)Nc4onc(C)c4C)cc3)c2c1 | inconclusive: 31.6 µM [inhibitor, single point] | –
CCC(C)n1cnc2c(c1=O)c1nc3ccccc3nc1n2Cc1ccc(OC)cc1 (stereo not drawn) | – | inactive: -4.89%
Cc1ccc(O)c(N=NC2=C(O)CC(C)(C)CC2=O)c1 | active: 28.2 µM | –
Cc1occc1-c1nnc(SCC(=O)c2ccc(Cl)cc2)n1CC1CCCO1 (stereo not drawn) | – | inactive: -0.152%
O=C(O)Cn1c(-c2cscn2)nc2ccccc21 | – | inactive: -3.13%
COCCOC(=O)/C(=C/c1ccc(OC(=O)c2ccccc2)cc1)C(C)=O | – | inactive: 4%
CC1=CCC(C(=O)O)C(C(=O)Nc2nc3ccc(S(C)(=O)=O)cc3s2)C1 (stereo not drawn) | inconclusive: 6.31 µM [inhibitor, single point] | –
O=C(CSc1n[nH]c(=O)[nH]c1=O)Nc1ccc2c(c1)C(=O)c1ccccc1C2=O | active: 28.2 µM | –
Cn1c(N/N=C/c2cc3ccccc3nc2Cl)nc2ccccc21 | – | inactive: 5.03%
O=C(CSc1nc2nn(-c3ccccc3)c(=O)c-2c2n1CCCCC2)c1ccc(O)c(O)c1 | active: 8.91 µM | –
COc1ccc(N(CC(=O)Nc2ccc(S(=O)(=O)N3CCCC3)cc2)S(C)(=O)=O)cc1OC | inconclusive: 4.47 µM [inhibitor, partial curve] | –
O=C(COC(=O)/C=C/c1cccc(C(F)(F)F)c1)NCCN1C(=O)CSC1=O | inconclusive: 0.708 µM [inhibitor, single point] | –
CC(C)COP(=O)(c1ccc(N(C)C)cc1)C(Nc1ccccc1)c1ccccc1 (stereo not drawn) | – | inactive: -3.84%
Cc1ccc(NC(=S)N(CCCN2CCOCC2)Cc2ccccn2)cc1 | – | inactive: -1.92%
O=C(O)c1ccnc2c(O)cccc12 | active: 12.6 µM | –

Compound | Potency | activity, negative = inhibition
Oc1ccc(N=Nc2nc(-c3ccccc3)c(-c3ccccc3)[nH]2)cc1 | inconclusive: 31.6 µM [inhibitor, single point] | –
O=C(Nc1cccc(C(F)(F)F)c1)Oc1ccc(Cl)c2cccnc12 | active: 25.1 µM | –
CCOC(=O)Cc1c(C)nc(N)[nH]c1=O | – | inactive: -5.28%
Cc1nc(CS(=O)(=O)c2ccccc2)cc(Sc2ccccc2Cl)n1 | inconclusive: 7.08 µM [inhibitor, single point] | –
O=C(COc1ccc(Br)cc1Cl)c1ccc[nH]1 | inconclusive: 15.8 µM [inhibitor, partial curve] | –
COc1ccccc1N1C(=O)CC(Nc2ccc(N3CCOCC3)cc2)C1=O (stereo not drawn) | – | inactive: -14.2%
CCOC(=O)c1cc(-c2ccccc2)n(CCC(=O)N2CCN(c3ccc(OC)cc3)CC2)c1C | inconclusive: 22.4 µM [inhibitor, single point] | –
O=C(Nc1ccc(F)c(F)c1)C1CCN(S(=O)(=O)c2cccs2)CC1 | – | inactive: -4.97%
Cc1ccc(S(=O)(=O)NCCNC(=O)c2nonc2N)cc1 | – | inactive: 15.3%
Cn1c(SCC(=O)c2ccc(-c3ccccc3)cc2)nnc1-c1ccco1 | inconclusive: 39.8 µM [inhibitor, single point] | –
O=C(NCCCn1ccnc1)c1ccncc1 | – | inactive: -9.07%
Cc1ccc(S(=O)(=O)N2CCN(C(=O)COC(=O)CNC(=O)c3ccccc3)CC2)c(C)c1 | inconclusive: 0.708 µM [inhibitor, single point] | –
CCn1c(=O)cc(OCC(=O)O)c2ccccc21 | – | inactive: 11.1%
CCOC(=O)c1sc(N=NC2=C(O)CCCC2=O)c(C(=O)OCC)c1C | active: 3.55 µM | –
COc1ccc(-n2c(C)cc(C(=O)CSc3ccc(NC(C)=O)cc3)c2C)cc1 | inconclusive: 28.2 µM [inhibitor, partial curve] | –
O=C(COC(=O)/C=C/c1ccc(Br)o1)Nc1cccc(S(=O)(=O)N2CCOCC2)c1 | inconclusive: 20 µM [inhibitor, partial curve] | –
O=C(C1CC(=O)N(c2ccc3c(c2)OCCO3)C1)N1CCN(c2ccccc2)CC1 (stereo not drawn) | inconclusive: 17.8 µM [inhibitor, single point] | –
O=C(COC(=O)c1cccs1)NCc1ccco1 | inconclusive: 28.2 µM [inhibitor, single point] | –
COc1cccc(N2CCN(c3ccc(S(=O)(=O)N4CCN(C)CC4)cc3[N+](=O)[O-])CC2)c1 | inconclusive: 39.8 µM [inhibitor, single point] | –
Cc1ccc(N=C2NC(=O)/C(=C/C=C/c3ccco3)S2)cc1 | inconclusive: 35.5 µM [inhibitor, single point] | –
O=C(Nc1ccc(N2CCOCC2)cc1)Nc1cnsn1 | inconclusive: 6.31 µM [inhibitor, single point] | –
Nc1nc(CCl)nc(Nc2ccc3ccccc3c2)n1 | inconclusive: 20 µM [inhibitor, partial curve] | –
CCOC(=O)C1Oc2ccccc2C(c2cccc3ccccc23)=C1C(=O)OC (stereo not drawn) | inconclusive: 7.08 µM [inhibitor, single point] | –
